Each structure is given as a SMILES string. Several values for one entry are separate records, joined by “and”; a condition that tells them apart may be missing. Equal entries are not always repeated. Among all 16,000 compounds or so, about 40 (0.2%) were called active. Roughly 1% stayed inconclusive and do not appear here. The call rests on the fitted dose curve; in most records, active means well fitted activation curve with a large enough effect; inconclusive means small, poorly fitted or top-dose-only effect, or another doubt; inactive means no such curve, though single readings can be large or run the other way. The list shows a part of the results.
On the % scale 0 is the no-effect control and ±100 the full control effect.

The target of the test is Rap guanine nucleotide exchange factor 4 (Homo sapiens) (UniProt Q8WZA2). Nature of the test: Validation qHTS for agonist of cAMP-regulated guanine nucleotide exchange factor 4 (EPAC2).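 Further: exchange makes BODIPY-GDP fluorescence drop when released from Rap1B; series mostly up to about 150 µM.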 The following applies: EPAC2 Rap1B BODIPY-GDP exchange, fluorescence; activation: hits give high values. An outline of the steps: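 Fluorescent exchange assay: 100 nM EPAC2 with 250 nM RAP1B-BODIPY-GDP and 50 uM GDP; compound added, 5 min at room temperature, then read (ex 480/em 540 nm) every 5 min for 30 min. Normalized to 6.5 mM cAMP agonist control.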
UniProt Q8WZA2, sequence (Q8WZA2 whole entry, looked up): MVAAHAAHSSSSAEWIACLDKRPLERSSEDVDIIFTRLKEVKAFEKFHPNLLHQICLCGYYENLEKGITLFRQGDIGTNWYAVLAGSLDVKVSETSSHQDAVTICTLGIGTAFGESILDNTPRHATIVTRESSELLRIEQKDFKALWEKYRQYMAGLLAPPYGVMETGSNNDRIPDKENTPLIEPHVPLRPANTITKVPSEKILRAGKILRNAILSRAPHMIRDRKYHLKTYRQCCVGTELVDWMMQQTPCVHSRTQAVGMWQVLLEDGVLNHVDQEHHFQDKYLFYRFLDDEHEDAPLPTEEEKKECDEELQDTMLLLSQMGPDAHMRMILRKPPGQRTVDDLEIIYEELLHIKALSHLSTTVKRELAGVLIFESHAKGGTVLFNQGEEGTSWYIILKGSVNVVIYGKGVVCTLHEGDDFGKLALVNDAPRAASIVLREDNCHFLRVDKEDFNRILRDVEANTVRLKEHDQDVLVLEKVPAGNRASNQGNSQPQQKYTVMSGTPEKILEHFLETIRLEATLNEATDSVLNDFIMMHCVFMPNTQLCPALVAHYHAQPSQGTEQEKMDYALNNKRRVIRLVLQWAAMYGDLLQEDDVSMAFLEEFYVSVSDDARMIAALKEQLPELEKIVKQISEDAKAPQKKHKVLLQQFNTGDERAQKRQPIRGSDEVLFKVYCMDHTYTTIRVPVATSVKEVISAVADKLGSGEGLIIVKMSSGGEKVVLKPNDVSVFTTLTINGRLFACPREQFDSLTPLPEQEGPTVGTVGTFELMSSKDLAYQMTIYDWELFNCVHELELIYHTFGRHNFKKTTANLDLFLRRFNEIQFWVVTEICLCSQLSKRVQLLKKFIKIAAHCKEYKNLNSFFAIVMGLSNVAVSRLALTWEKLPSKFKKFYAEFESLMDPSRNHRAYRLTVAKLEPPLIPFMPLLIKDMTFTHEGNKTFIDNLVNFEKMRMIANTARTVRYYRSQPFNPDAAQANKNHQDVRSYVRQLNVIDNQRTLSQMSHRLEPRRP
On the technique in general: qHTS replaces the single test concentration by a dilution series.
On to `C/C=C1\C2C=C(C)C[C@@]1(N)c1ccc(=O)[nH]c1C2`, for which the activation is inactive: 7.89%.
Consider `O=C1CCN(Cc2ccc([N+](=O)[O-])cc2)CCN1[C@H](CO)c1ccccc1`, for which the activation is inactive: -19.6%.
As for `COc1ccc(-n2c(=O)c(-c3cccs3)nc3cnc(N4CCNCC4)nc32)cc1`, the activation was inactive: -9.96%.
The same measure for `O=C(c1cnccn1)N1CCC2(CCCN(c3cccc(-c4ccccc4)c3)C2)CC1`: inactive: 17%.
On to `CCCCC#Cc1nc(NC)c2ncn([C@@H]3O[C@H](CO)[C@@H](O)[C@H]3O)c2n1`, for which the activation is inactive: -17.8%.
In the case of `COc1ccccc1-c1ccnc(-n2ncc(C(=O)NC(C)(C)CO)c2C2CC2)n1`, the activation is inactive: 3.59%.
Turning to `C=CCN1CCCC1CNC(=O)c1cc(S(N)(=O)=O)cc(OC)c1OC` (stereo not drawn), the activation is inactive: 11.7%.
The same measure for `Cc1nc(NCc2cnn(C)c2C)sc1-c1ccn(CC2COc3ccccc3O2)n1` (stereo not drawn): inactive: -20%; for `Cn1cccc1C(=O)N1CCC[C@@]2(CCN(c3ccccc3)C2)C1`: inactive: 3.25%.
For the molecule `OC1OC[C@@H](O)[C@H](O)[C@@H]1O` (stereo partly drawn), the activation is inactive: -13.2%.
On to `N#Cc1ccc(CN2CCCC3(CCNCC3)C2)cc1`, for which the activation was inactive: -8.86%.
As for `O=C(NCC1CCC2(CCN(Cc3ccccc3O)CC2)O1)C1CCCO1` (stereo not drawn), the activation was inactive: -8.89%.
The same measure for `CC(C)(C)C(O)/C=C/c1ccc2c(c1)OCO2` (stereo not drawn): inactive: -27.3%; for `CC/C(=C\c1ccccc1)c1cccc2oc3ccccc3c12`: inactive: -22.7%.
`Nc1cc(N2CCCCC2)nc(N)[n+]1OS(=O)(=O)[O-]`: the activation is inactive: -10.1% and inactive: -1.75%.
As to `C[C@@H]1CC[C@@]2(OC1)OC1CC3C4CC=C5CC(O)CCC5(C)C4CCC3(C)C1[C@@H]2C` (stereo partly drawn), the activation was inactive: -17.9%.
With `COc1ccc(CNc2ccnc(-c3ccccc3C(F)(F)F)n2)c(OC)c1`, the activation was inactive: -6.06%.
`O=[N+]([O-])c1ccc(Oc2ccc(N=C=S)cc2)cc1`: the activation is inactive: 14.8%.
On to `CC[C@]1(O)C[C@@H]2CN(CCc3c([nH]c4ccccc34)[C@@](C(=O)OC)(c3cc4c(cc3OC)N(C)[C@H]3[C@@](O)(C(=O)OC)[C@H](OC(C)=O)[C@]5(CC)C=CCN6CC[C@]43[C@@H]65)C2)C1`, for which the activation is inactive: -6.97% and inactive: -10.4%.
Take `CN(C)CCOC(c1ccccc1)c1ccccc1` (tested in a mixture with another compound): the activation was inactive: -8.39%.
Take `C=C(C)C1CC=C(C)CC1` (stereo not drawn): the activation is inactive: -10.1%.
For `Cn1cnc2c(NC3CCCC3)ncnc21`, the activation was inactive: -7.47%.
With `COc1ccc2[nH]cc(CCNc3ncnc4ccc(-c5cccc(C#N)c5)cc34)c2c1`, the activation was inactive: 12.5%.
With `CCOC(=O)c1c(C)cc(O)c(C)c1O`, the activation is inactive: 1.13%.
For `CC(CCc1ccc(O)cc1)NCC(O)c1ccc(O)cc1` (stereo not drawn), the activation was inactive: -31.8%.
As for `CCN(CCCc1ccccc1)CCCc1ccccc1`, the activation was inactive: 13.2% and inactive: 0.917%.
Regarding `CN(C)Cc1ccccc1-c1nccc(NC2CC2)n1`, the activation is inactive: -7.09%.
Take `CCCCC(CC)COC(=O)c1ccccc1O` (stereo not drawn): the activation is inactive: -6.95%.
As for `Cc1c(C)c2c(c(C)c1O)CC[C@@](C)(CCC[C@H](C)CCC[C@H](C)CCCC(C)C)O2`, the activation is inactive: 1.42% and inactive: -9.92% and inactive: -47%.
Turning to `C[C@@H](C1=C(CCN(C)C)Cc2ccccc21)c1ccccn1`, the activation is inactive: -24.1%.
In the case of `O=C(CCN1CCN2CCCC2C1)N1c2ccccc2Sc2ccc(Cl)cc21` (stereo not drawn), the activation is inactive: -16.1%.
In the case of `O=C(O)CCC(=O)C(=O)O` (tested in a mixture with another compound) it was inactive: -13.1%; in that of `O=C(Nc1ccccc1)N1CC2(CCN(C(=O)c3ccco3)CC2)C1`, inactive: -16.9%; in that of `COC1C(O)C(CO)OC1n1c(Br)nc2c(=O)[nH]c(N)nc21` (stereo not drawn), inactive: 3.55%.
In the case of `O=C(NCC1CCC2(CCN(Cc3cccn3-c3ccc(Cl)cn3)CC2)O1)c1ccccc1` (stereo not drawn) it was inactive: -15.5%.
In the case of `CCCCCCCCCCCCCCCCCC[N+](C)(C)CCC[Si](OC)(OC)OC` it was inactive: -8.74%.
For the molecule `COc1ccc(CN2CCOc3ccc(C(O)c4cccnc4)cc3C2)c(OC)c1OC` (stereo not drawn), the activation is inactive: -2.89%.
The same measure for `COc1ccc2cc(CNCc3ccccc3Cl)c(N3CCCC(CO)C3)nc2c1` (stereo not drawn): inactive: -1.78%; for `Cn1c(=O)c(-c2ccc(F)cc2)nc2cnc(Oc3ccccc3)nc21`: inactive: -17.6%; for `N#Cc1cccc(NC(=O)N2CC3(CCN(C(=O)c4cc(C(F)(F)F)cc(C(F)(F)F)c4)CC3)C2)c1`: inactive: -11.2%.
On to `Cc1oc(-c2ccccc2NC(=O)C2CCC2)nc1CNC(=O)c1ccccn1`, for which the activation is inactive: -16.5%.
In the case of `Cc1c(C(=O)NCCc2ccncc2)cnn1-c1nccc(-c2ccccc2C(F)(F)F)n1` it was inactive: -21.1%; in that of `CO/N=C1\CN(c2nc3c(cc2F)c(=O)c(C(=O)O)cn3C2CC2)CC1CN` (stereo not drawn), inactive: -18%.
With `NC(=O)NO`, the activation is inactive: -14.3% and inactive: -26.2%.
As to `Clc1ccccc1C(c1ccccc1)(c1ccccc1)n1ccnc1`, the activation is inactive: -31.2% and inactive: -8.84% and inactive: -35.2%.
Take `O=S(=O)(c1ccccc1)N1CCC2(CC1)CN(C(c1ccccc1)c1ccccc1)C2`: the activation was inactive: 14.6%.
For the molecule `CNc1ccnc(-c2ccccc2C)n1`, the activation was inactive: -3.3%.
Take `O=S1(=O)CCOC[C@H](c2ccccc2)N1Cc1ccccc1F`: the activation is inactive: -13.6%.
For `Cc1nn(-c2ccccc2)c(C)c1CC(=O)NCC1Cc2cc(-c3cncnc3)ccc2O1` (stereo not drawn), the activation is inactive: -20.2%.
For the molecule `COc1ccc(-n2c(CNC(=O)c3ccc(OC)cc3OC)nnc2SC)cc1`, the activation was inactive: -13.1%.
The same measure for `CCCCCCCCCCCCCCCC(=O)C1=C(O)C(CO)OC1=O` (stereo not drawn): inactive: -9.54%.
In the case of `CC(C)=CCC/C(C)=C/COc1ccc2ccc(=O)oc2c1` it was inactive: -1.33%.
As to `C=CC[N@@+]12CC[C@@]34c5ccccc5N5/C=C6/[C@H]7C[C@H]8[C@@]9(CC[N@@+]8(CC=C)C/C7=C/CO)c7ccccc7N(/C=C(/[C@@H](C[C@@H]31)/C(=C\CO)C2)[C@H]54)[C@@H]69`, the activation is inactive: -0.191%.

The record behind these values is PubChem BioAssay AID1645887 (National Center for Advancing Translational Sciences (NCATS), 2021).
